Data: the supplement of paper PMC9151546
Most values come without repeats; read them as rough.

Legend:
CHO-K1 [1] = assay: hypodiploid nuclei frequency (% of nucleated events); higher = more hypodiploid events (aneugenic)
Method: (§1)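 Flow-cytometric in vitro micronucleus assay (Litron MicroFlow) in CHO-K1 cells in 96-well plates, 19 concentrations (4.5-200 µM, n=1 per concentration). Without S9, cells were exposed for 24 h and sampled at 48 h. With Aroclor 1254-induced rat liver S9, cells were exposed for 3-4 h and sampled at 27-28 h. Read-outs are %MN and %hypodiploid nuclei relative to nucleated events, and relative survival as the nuclei-to-bead ratio versus the 1% DMSO vehicle control (x100).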

CHO-K1 [2] = assay: relative survival (nuclei to bead ratio vs DMSO control) (% of vehicle control); higher = more surviving cells
Method: as §1

CHO-K1 [3] = assay: micronucleus frequency (% of nucleated events); higher = more micronuclei (genotoxic)
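Throughout, for hypodiploid nuclei frequency (% of nucleated events): hypodiploid nuclei gated on a flow cytometer with 488 nm excitation after SYTOX Green staining, cultures at 37 °C, positive controls vinblastine without S9 and cyclophosphamide with S9.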
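Throughout, for micronucleus frequency (% of nucleated events): cells lysed with nuclei stained by SYTOX Green, then micronucleus-gated events counted against nucleated events by flow cytometry with 488 nm excitation.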
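Throughout, for relative survival (nuclei to bead ratio vs DMSO control): Lysed-cell nuclei stained with SYTOX Green and counted against counting beads by flow cytometry at 488 nm excitation, with vinblastine (no S9) and cyclophosphamide (plus S9) as positive controls.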

O=P1(N(CCCl)CCCl)NCCCO1 (stereo not drawn) [Cyclophosphamide monohydrate]
Conditions	hypodiploid nuclei frequency, CHO-K1 [1] [%]	micronucleus frequency, CHO-K1 [3] [%]	relative survival, CHO-K1 [2]
concentration: 4.5 (µM), S9 metabolic activation: with S9, exposure time: 3-4 hours	0.26	1.42	76.5
concentration: 4.5 (µM), S9 metabolic activation: without S9, exposure time: 24 hours	0.52	1.48	65.9
concentration: 5.63 (µM), S9 metabolic activation: with S9, exposure time: 3-4 hours	0.4	2.82	117
concentration: 5.63 (µM), S9 metabolic activation: without S9, exposure time: 24 hours	0.64	1.42	76.5
concentration: 7.04 (µM), S9 metabolic activation: with S9, exposure time: 3-4 hours	0.16	1.38	89.5
concentration: 7.04 (µM), S9 metabolic activation: without S9, exposure time: 24 hours	0.3	1.12	76
concentration: 8.8 (µM), S9 metabolic activation: with S9, exposure time: 3-4 hours	0.28	1.38	104
concentration: 8.8 (µM), S9 metabolic activation: without S9, exposure time: 24 hours	0.48	0.88	68.9
concentration: 11 (µM), S9 metabolic activation: with S9, exposure time: 3-4 hours	0.18	1.14	90.3
concentration: 11 (µM), S9 metabolic activation: without S9, exposure time: 24 hours	0.72	1.18	65.4
concentration: 13.7 (µM), S9 metabolic activation: with S9, exposure time: 3-4 hours	0.32	1.5	100
concentration: 13.7 (µM), S9 metabolic activation: without S9, exposure time: 24 hours	0.72	0.84	76.2
concentration: 17.2 (µM), S9 metabolic activation: with S9, exposure time: 3-4 hours	0.18	1.04	106
concentration: 17.2 (µM), S9 metabolic activation: without S9, exposure time: 24 hours	0.56	0.94	76.2
concentration: 21.5 (µM), S9 metabolic activation: with S9, exposure time: 3-4 hours	0.4	1.16	103
concentration: 21.5 (µM), S9 metabolic activation: without S9, exposure time: 24 hours	0.54	1.1	104
concentration: 26.8 (µM), S9 metabolic activation: with S9, exposure time: 3-4 hours	0.22	1.1	82.8
concentration: 26.8 (µM), S9 metabolic activation: without S9, exposure time: 24 hours	0.34	1.18	88.9
concentration: 33.6 (µM), S9 metabolic activation: with S9, exposure time: 3-4 hours	0.2	0.72	73.3
concentration: 33.6 (µM), S9 metabolic activation: without S9, exposure time: 24 hours	0.38	1.06	79.1
concentration: 41.9 (µM), S9 metabolic activation: with S9, exposure time: 3-4 hours	0.38	1.3	69.7
concentration: 41.9 (µM), S9 metabolic activation: without S9, exposure time: 24 hours	0.5	1.5	64.1
concentration: 52.4 (µM), S9 metabolic activation: with S9, exposure time: 3-4 hours	0.2	1	81.5
concentration: 52.4 (µM), S9 metabolic activation: without S9, exposure time: 24 hours	0.3	1.2	64.7
concentration: 65.5 (µM), S9 metabolic activation: with S9, exposure time: 3-4 hours	0.26	1.56	83.9
concentration: 65.5 (µM), S9 metabolic activation: without S9, exposure time: 24 hours	0.38	1.2	63.4
concentration: 81.9 (µM), S9 metabolic activation: with S9, exposure time: 3-4 hours	0.26	1.04	79.2
concentration: 81.9 (µM), S9 metabolic activation: without S9, exposure time: 24 hours	0.78	1.76	69.5
concentration: 102 (µM), S9 metabolic activation: with S9, exposure time: 3-4 hours	0.24	1.06	72.1
concentration: 102 (µM), S9 metabolic activation: without S9, exposure time: 24 hours	1	1.76	59.6
concentration: 128 (µM), S9 metabolic activation: with S9, exposure time: 3-4 hours	0.28	0.94	71.1
concentration: 128 (µM), S9 metabolic activation: without S9, exposure time: 24 hours	0.7	1.56	62.5
concentration: 160 (µM), S9 metabolic activation: with S9, exposure time: 3-4 hours	0.12	0.94	79.1
concentration: 160 (µM), S9 metabolic activation: without S9, exposure time: 24 hours	1.24	2	47.3
concentration: 200 (µM), S9 metabolic activation: with S9, exposure time: 3-4 hours	0.28	0.58	57.5
concentration: 200 (µM), S9 metabolic activation: without S9, exposure time: 24 hours	1.08	2.72	60.4
